{
  "source": "paper PMC4336329",
  "about": "(PLoS ONE, 2015)",
  "note": "In all, about 310,000 compounds went through this assay and about 14,000 (4.5%) showed an effect of 50% or more. The effect is printed as a negative number. The list shows a part of the results.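 Further: peak tail current of the secondary pulse compared with the same well before compound.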",
  "data": [
    {"target": "human ether-à-go-go-related gene (hERG) potassium channel (human, UniProt Q12809)", "sequence (Q12809 whole entry, looked up)": "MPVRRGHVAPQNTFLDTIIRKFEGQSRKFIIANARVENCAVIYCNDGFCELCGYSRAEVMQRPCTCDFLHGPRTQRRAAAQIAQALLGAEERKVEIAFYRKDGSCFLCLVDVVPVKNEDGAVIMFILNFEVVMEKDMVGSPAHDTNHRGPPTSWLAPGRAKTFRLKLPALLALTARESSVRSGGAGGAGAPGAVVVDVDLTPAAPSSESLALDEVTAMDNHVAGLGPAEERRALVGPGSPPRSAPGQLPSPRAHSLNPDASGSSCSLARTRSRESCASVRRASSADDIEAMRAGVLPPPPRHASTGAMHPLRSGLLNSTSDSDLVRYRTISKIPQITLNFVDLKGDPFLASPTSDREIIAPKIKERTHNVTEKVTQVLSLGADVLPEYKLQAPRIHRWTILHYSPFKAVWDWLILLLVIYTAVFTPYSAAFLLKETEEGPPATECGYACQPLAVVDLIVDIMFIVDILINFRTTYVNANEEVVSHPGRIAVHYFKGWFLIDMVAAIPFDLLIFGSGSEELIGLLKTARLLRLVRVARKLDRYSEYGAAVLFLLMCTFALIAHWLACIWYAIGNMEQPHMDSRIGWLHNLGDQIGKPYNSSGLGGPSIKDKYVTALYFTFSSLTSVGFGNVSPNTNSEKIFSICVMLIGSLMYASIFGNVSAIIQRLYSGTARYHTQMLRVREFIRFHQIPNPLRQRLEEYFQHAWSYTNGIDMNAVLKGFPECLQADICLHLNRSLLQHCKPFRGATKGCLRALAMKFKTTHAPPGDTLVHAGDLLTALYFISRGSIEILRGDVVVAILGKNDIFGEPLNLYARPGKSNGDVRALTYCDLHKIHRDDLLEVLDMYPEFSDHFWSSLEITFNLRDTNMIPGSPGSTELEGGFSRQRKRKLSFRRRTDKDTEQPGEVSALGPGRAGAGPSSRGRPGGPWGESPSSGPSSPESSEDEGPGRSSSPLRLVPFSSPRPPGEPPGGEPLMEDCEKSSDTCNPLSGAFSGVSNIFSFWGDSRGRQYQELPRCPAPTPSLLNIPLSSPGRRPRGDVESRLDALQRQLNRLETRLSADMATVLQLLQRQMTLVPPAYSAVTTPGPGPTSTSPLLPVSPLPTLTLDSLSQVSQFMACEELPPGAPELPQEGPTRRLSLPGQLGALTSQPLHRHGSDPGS", "assay": "primary screen, population patch clamp on CHO cells stably expressing hERG", "units": {"hERG current change (%, negative = inhibition) at 10uM": "%"}, "values": [
      {"smiles": "O=C(NCCSc1c[nH]c2ccccc12)c1ccc2c(c1)OCO2", "hERG current change (%, negative = inhibition) at 10uM": -17},
      {"smiles": "O=C(COC(=O)CCNS(=O)(=O)c1ccccc1)Nc1ccc(OC(F)F)cc1", "hERG current change (%, negative = inhibition) at 10uM": -60.3},
      {"smiles": "Cc1c(C=O)c2ccccc2n1Cc1cccc(F)c1", "hERG current change (%, negative = inhibition) at 10uM": -1.84},
      {"smiles": "COc1ccc(NC(=O)CSc2nc(C)cc(C)n2)c([N+](=O)[O-])c1", "hERG current change (%, negative = inhibition) at 10uM": 11.9},
      {"smiles": "COc1ccc(N2CCN(Cc3nc(Cc4cccc(F)c4)no3)C(C)C2)cc1", "note": "(stereo not shown)", "hERG current change (%, negative = inhibition) at 10uM": -16.4},
      {"smiles": "CN(Cc1ccco1)S(=O)(=O)c1ccc2c(c1)CCN2C(=O)CCC(=O)O", "hERG current change (%, negative = inhibition) at 10uM": 19.7},
      {"smiles": "Cc1cccc(-c2nnc(NC(=O)c3ccco3)s2)c1", "hERG current change (%, negative = inhibition) at 10uM": 13.9},
      {"smiles": "S=C(Nc1ccc2c(c1)OCCO2)Nc1ccccc1Cl", "hERG current change (%, negative = inhibition) at 10uM": 14.7},
      {"smiles": "CC(C)OC(=O)c1ccc(NC(=O)c2ccco2)cc1", "hERG current change (%, negative = inhibition) at 10uM": -17.1},
      {"smiles": "Cc1ccc(NC(=O)NC(=O)N(C(C)C)S(=O)(=O)c2ccc(C)cc2)cc1", "hERG current change (%, negative = inhibition) at 10uM": 6.99},
      {"smiles": "O=S(=O)(c1ccc(-c2n[nH]c(=S)o2)cc1)N1CCCCC1", "hERG current change (%, negative = inhibition) at 10uM": 22.4},
      {"smiles": "COc1ccc(CCNC(=O)C2CCN(Cc3nc(-c4ccccc4C)oc3C)CC2)cc1OC", "hERG current change (%, negative = inhibition) at 10uM": -79.2},
      {"smiles": "COc1ccc(C(=O)Nc2c(N)nc(SCC(=O)Nc3ccc(C(C)=O)cc3)[nH]c2=O)cc1", "hERG current change (%, negative = inhibition) at 10uM": 20.1},
      {"smiles": "COc1cccc(C(=O)C2CCCN(Cc3cn(CC(N)=O)c4ccccc34)C2)c1", "note": "(stereo not shown)", "hERG current change (%, negative = inhibition) at 10uM": -53},
      {"smiles": "CC(C)(C)OC(=O)NCCCC[C@H](NC(=O)c1nc[nH]c1C(=O)N1CCN(c2ccccc2)CC1)C(=O)OC(C)(C)C", "hERG current change (%, negative = inhibition) at 10uM": -17.2},
      {"smiles": "COC(CNC(=O)C(=O)NCC1OCCN1C(=O)c1ccc(Cl)cc1)OC", "note": "(stereo not shown)", "hERG current change (%, negative = inhibition) at 10uM": 13.5},
      {"smiles": "Nc1cccc2c1nnn2C1OC(CO)C(O)C(O)C1O", "note": "(stereo not shown)", "hERG current change (%, negative = inhibition) at 10uM": 17.7},
      {"smiles": "O=C(N=C1SC2CS(=O)(=O)CC2N1c1ccc(F)c(Cl)c1)C1CCCO1", "note": "(stereo not shown)", "hERG current change (%, negative = inhibition) at 10uM": 6.3},
      {"smiles": "COc1ccccc1-c1nnc(C2CCN(S(=O)(=O)c3cccc([N+](=O)[O-])c3)CC2)o1", "hERG current change (%, negative = inhibition) at 10uM": -57.6},
      {"smiles": "CC(C(=O)Nc1ccccc1Cl)c1ccc([N+](=O)[O-])cc1", "note": "(stereo not shown)", "hERG current change (%, negative = inhibition) at 10uM": -25.3},
      {"smiles": "CC(=O)/C(=N/Nc1ccc(Br)cc1)N1CCCc2ccccc21", "hERG current change (%, negative = inhibition) at 10uM": 4.06},
      {"smiles": "S=C(Nc1ccccn1)Nc1ccccc1Cl", "hERG current change (%, negative = inhibition) at 10uM": 11},
      {"smiles": "O=C(NCC(=O)N1CCCCCC1)c1ccc(Cl)cc1", "hERG current change (%, negative = inhibition) at 10uM": 11.8},
      {"smiles": "Cc1sc2nc(SCC(=O)NCc3ccco3)n(Cc3ccccc3)c(=O)c2c1C", "hERG current change (%, negative = inhibition) at 10uM": -3.84},
      {"smiles": "O=C(NNC(=O)c1ccccc1)C(=O)N1CCCCC1", "hERG current change (%, negative = inhibition) at 10uM": -0.928},
      {"smiles": "Cc1sc2ncnc(Sc3ccccc3C(=O)O)c2c1C", "hERG current change (%, negative = inhibition) at 10uM": -14.7},
      {"smiles": "Cc1nc(NC(=O)c2ccccc2)sc1-c1csc(NCc2ccccc2)n1", "hERG current change (%, negative = inhibition) at 10uM": -2.97},
      {"smiles": "COc1ccccc1C/C(N)=N/OC(=O)COc1ccc(C)cc1C", "hERG current change (%, negative = inhibition) at 10uM": 17.4},
      {"smiles": "COc1ccc(S(=O)(=O)N2CCC(C(=O)NCC3CCCO3)CC2)cc1C", "note": "(stereo not shown)", "hERG current change (%, negative = inhibition) at 10uM": 9.95},
      {"smiles": "CCCNC(=O)Cn1nc(C)n2c(cc3cc(F)ccc32)c1=O", "hERG current change (%, negative = inhibition) at 10uM": 17.6},
      {"smiles": "N#CCC(CNc1ncc(C(F)(F)F)cc1Cl)OC(=O)c1ccc(Cl)cc1Cl", "note": "(stereo not shown)", "hERG current change (%, negative = inhibition) at 10uM": 8.67},
      {"smiles": "O=c1[nH]cccc1-c1nc2ccccc2n1Cc1cccc(F)c1", "hERG current change (%, negative = inhibition) at 10uM": -12.1},
      {"smiles": "CC(CCc1ccccc1)NC(=O)C1CCN(S(=O)(=O)c2cnc[nH]2)CC1", "note": "(stereo not shown)", "hERG current change (%, negative = inhibition) at 10uM": 5.89},
      {"smiles": "CCCC1Cc2nc(Cl)c(C#N)cc2CO1", "note": "(stereo not shown)", "hERG current change (%, negative = inhibition) at 10uM": 15.6},
      {"smiles": "CCN(CC)CCn1c2c(c(SCC(=O)Nc3nc(C)cs3)nc1=O)CCCC2", "hERG current change (%, negative = inhibition) at 10uM": -70.1},
      {"smiles": "CC(=O)NC(CCS(C)(=O)=O)C(=O)Nc1ccc2c(c1)OCO2", "note": "(stereo not shown)", "hERG current change (%, negative = inhibition) at 10uM": 7.45},
      {"smiles": "Cc1ccc(NC(=S)NCCc2ccc(Cl)cc2)c(C)c1", "hERG current change (%, negative = inhibition) at 10uM": 16.3},
      {"smiles": "CC(C)CCOCC1CC2(CC(C)(c3csc(N)n3)OC2=O)C(=O)O1", "note": "(stereo not shown)", "hERG current change (%, negative = inhibition) at 10uM": 14.8},
      {"smiles": "COc1ccc(-c2nnc(SCc3cccc(C)c3)n2N)cc1", "hERG current change (%, negative = inhibition) at 10uM": 4.88},
      {"smiles": "COc1cccc(Oc2ccc(C(F)(F)F)cc2N)c1", "hERG current change (%, negative = inhibition) at 10uM": -1.73},
      {"smiles": "CC(=O)N1C(=O)N(C(C)=O)C2C1N(C(C)=O)C(=O)N2C(C)=O", "note": "(stereo not shown)", "hERG current change (%, negative = inhibition) at 10uM": 5.37},
      {"smiles": "Cc1ccccc1N1CCN(C2CCCN(C(=O)CCN3CCCCC3=O)C2)CC1", "note": "(stereo not shown)", "hERG current change (%, negative = inhibition) at 10uM": -19.5},
      {"smiles": "CCOc1ccccc1N(CC(=O)NC1CCCCC1)C(=O)CCC(=O)Nc1nccs1", "hERG current change (%, negative = inhibition) at 10uM": -28.4},
      {"smiles": "COc1cccc(NC(=S)NC(=O)c2cncc(Br)c2)c1", "hERG current change (%, negative = inhibition) at 10uM": 6.77},
      {"smiles": "COc1ccc(N2CCN(S(=O)(=O)c3ccc(OC)c(C(=O)N4CCOCC4)c3)CC2)cc1", "hERG current change (%, negative = inhibition) at 10uM": 1.68},
      {"smiles": "COc1cccc(/C=N/NC(=O)CNC(=O)/C=C\\c2ccccc2)c1O", "hERG current change (%, negative = inhibition) at 10uM": 7.53},
      {"smiles": "Cc1ccnc(NC(=O)c2ccc(COc3ccc(Cl)cc3)o2)c1", "hERG current change (%, negative = inhibition) at 10uM": -4.21},
      {"smiles": "O=C(c1cnccn1)N1CCN(c2ccccc2F)CC1", "hERG current change (%, negative = inhibition) at 10uM": 18.5},
      {"smiles": "Cc1ccccc1-n1nc(C(=O)c2cccs2)cc(-c2nc3ccccc3[nH]2)c1=N", "hERG current change (%, negative = inhibition) at 10uM": -1.9},
      {"smiles": "O=C(CSc1nnc(-c2cccnc2)n1Cc1ccco1)N1c2ccccc2Sc2ccccc21", "hERG current change (%, negative = inhibition) at 10uM": -33.7},
      {"smiles": "CCN(C(=O)C(C)Sc1ccc(S(=O)(=O)N2CCOCC2)cn1)c1ccccc1", "note": "(stereo not shown)", "hERG current change (%, negative = inhibition) at 10uM": 3.47},
      {"smiles": "COc1cccc(CN2CCN(C(c3ccccc3)c3ccccc3)CC2)c1O.O=C(O)C(=O)O", "hERG current change (%, negative = inhibition) at 10uM": -64.5},
      {"smiles": "Cn1c(SCC(=O)N2CCOCC2)nnc1-c1cnccn1", "hERG current change (%, negative = inhibition) at 10uM": 18},
      {"smiles": "CCOC(=O)c1cnc(SCc2nc(N)nc(Nc3ccccc3OC)n2)nc1N", "hERG current change (%, negative = inhibition) at 10uM": -2.39},
      {"smiles": "CC(=O)OCC(=O)[C@H]1CC[C@H]2[C@@H]3CC[C@H]4C[C@H](O)CC[C@]4(C)[C@H]3C(=O)C[C@]12C", "hERG current change (%, negative = inhibition) at 10uM": -20.1}
    ]}
  ]
}
